# Source: a collection of fitness landscapes (doi:10.1016/j.celrep.2020.107928)
# In all, about 81,000 sequences were measured (“one-hybrid fitness for binding NBS DNA”: median about -0.1, highest 2% from about 0.36 on). The list shows a part of the results.
# B1: Caulobacter ParB omega fusion; a variant is named by its letters at X, in order, B8GW30 (parent)
# chain: MESVVVGEPGMSEGRRGLGRGLSALLGEVDAAPAQAPGEQLGGSREAPIEILQRNPDQPRRTFREEDLEDLSNSIREKGVLQPILVRPSPDTAGEYQIVAGERAWRAAQRAGLKTVPIMVRELDDLAVLEIGIIENVQRADLNVLEEALSYKVLMEKFERTQENIAQTIGKSXSHVANXMRLLXLPDEVQSYLVSGELTAXHARAIAAAADPVALAKQIIEGGLSVRETEALARKAPNLSAGKSKGGRPPRVKDTDTQALESDLSSVLGLDVSIDHRGSTGTLTITYATLEQLDDLCNRLTRGI
# Variants of: B1
# Assay: one-hybrid fitness for binding NBS DNA (the Noc-binding site; scaled: cognate 1, non-cognate 0); higher = stronger binding
# Details: with NBS DNA site
# Method in brief: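 Fitness is the rescaled log change in variant-to-wild-type read ratio, measured by Illumina sequencing of plasmids before and after bacterial one-hybrid selection. The scale puts cognate at 1 and non-cognate at 0. Selection of Caulobacter ParB libraries, four specificity codons randomised, took place in E. coli USO with a HIS3 reporter, site 19 bp from the promoter, over 48 hours at 37°C on M9-minus-histidine with 0.1 mM IPTG and 5 mM 3-AT.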
row,Variant,one-hybrid fitness for binding NBS DNA
1,SIPL,≤ 0.2
2,LWKY,≤ 0.2
3,CSWR,≤ 0.2
4,KRLM,≤ 0.2
5,QSTH,≤ 0.2
6,GQHV,≤ 0.2
7,GDSR,≤ 0.2
8,FSDE,≤ 0.2
9,GEMR,≤ 0.2
10,SCFP,≤ 0.2
11,GKFS,≤ 0.2
12,WRPD,≤ 0.2
13,LSWC,≤ 0.2
14,MILM,≤ 0.2
15,VANM,≤ 0.2
16,PGPN,≤ 0.2
17,QNTA,≤ 0.2
18,CAHG,≤ 0.2
19,GMYC,≤ 0.2
20,VCST,≤ 0.2
21,IIES,≤ 0.2
22,GVPV,≤ 0.2
23,LSTA,≤ 0.2
24,DTQY,≤ 0.2

row,Variant,one-hybrid fitness for binding NBS DNA
1,RMWM,≤ 0.2
2,QFEL,≤ 0.2
3,WRPR,≤ 0.2
4,PISA,≤ 0.2
5,SIYS,≤ 0.2
6,NTAT,≤ 0.2
7,LFQT,≤ 0.2
8,QNPT,≤ 0.2
9,GVES,≤ 0.2
10,LITT,≤ 0.2
11,QYRA,0.558
12,MGSC,≤ 0.2
13,SRGL,≤ 0.2
14,VQRM,≤ 0.2
15,LYDS,≤ 0.2
16,KLYT,≤ 0.2
17,LQKW,≤ 0.2
18,GCNG,≤ 0.2
19,SGIV,≤ 0.2
20,WLCT,≤ 0.2
21,PAKP,≤ 0.2
22,HNAA,≤ 0.2
23,WSDV,≤ 0.2
24,QRCH,0.52

row,Variant,one-hybrid fitness for binding NBS DNA
1,SKRF,≤ 0.2
2,RIAT,0.376
3,PTML,≤ 0.2
4,DIYD,≤ 0.2
5,NNPD,≤ 0.2
6,APRY,≤ 0.2
7,PVHS,≤ 0.2
8,YFRR,≤ 0.2
9,PPWG,≤ 0.2
10,VVVY,≤ 0.2
11,QWYG,≤ 0.2
12,YHSF,≤ 0.2
13,RKYP,≤ 0.2
14,KRGW,≤ 0.2
15,KVPL,≤ 0.2
16,AVHL,≤ 0.2
17,MACR,≤ 0.2
18,WSYS,≤ 0.2
19,KCRN,≤ 0.2
20,KLGK,≤ 0.2
21,RLNH,0.201
22,MDKE,≤ 0.2
23,QYPH,≤ 0.2
24,MLKK,≤ 0.2

row,Variant,one-hybrid fitness for binding NBS DNA
1,PEPY,≤ 0.2
2,GLEA,≤ 0.2
3,GLAS,≤ 0.2
4,LLQT,≤ 0.2
5,QALK,≤ 0.2
6,HFHS,≤ 0.2
7,SCGH,≤ 0.2
8,DRAM,≤ 0.2
9,QQPH,≤ 0.2
10,DDGR,≤ 0.2
11,LSSK,≤ 0.2
12,FNTG,≤ 0.2
13,SRAS,≤ 0.2
14,TCQI,≤ 0.2
15,LLCS,≤ 0.2
16,RMPQ,≤ 0.2
17,CKES,≤ 0.2
18,EFNC,≤ 0.2
19,APKR,≤ 0.2
20,VAPG,≤ 0.2
21,ILYT,≤ 0.2
22,NAII,≤ 0.2
23,GVQR,≤ 0.2
24,SNTH,≤ 0.2

row,Variant,one-hybrid fitness for binding NBS DNA
1,NCNG,≤ 0.2
2,HLPL,≤ 0.2
3,GRHF,≤ 0.2
4,TRAA,≤ 0.2
5,FECS,≤ 0.2
6,PMYS,≤ 0.2
7,CITR,≤ 0.2
8,LREK,≤ 0.2
9,DKNK,≤ 0.2
10,NELY,≤ 0.2
11,RLQT,0.462
12,TCMN,≤ 0.2
13,PSPF,≤ 0.2
14,VVIL,≤ 0.2
15,VRSY,≤ 0.2
16,VKSL,≤ 0.2
17,GRCS,≤ 0.2
18,QVKV,0.213
19,ILSL,≤ 0.2
20,TQRG,≤ 0.2
21,RGAH,≤ 0.2
22,GRPC,≤ 0.2
23,YFKR,≤ 0.2
24,AHWT,≤ 0.2

row,Variant,one-hybrid fitness for binding NBS DNA
1,AHDR,≤ 0.2
2,PWYG,≤ 0.2
3,GKAS,≤ 0.2
4,ILWI,≤ 0.2
5,RFVA,≤ 0.2
6,EIQS,≤ 0.2
7,QWRH,≤ 0.2
8,TISG,≤ 0.2
9,SMAS,≤ 0.2
10,PGWG,≤ 0.2
11,HPVA,≤ 0.2
12,QDTW,≤ 0.2
13,AHHA,≤ 0.2
14,CYRN,≤ 0.2
15,FPVI,≤ 0.2
16,VQVR,≤ 0.2
17,TVLW,≤ 0.2
18,YNIG,≤ 0.2
19,FETE,≤ 0.2
20,KAYY,≤ 0.2
21,TNTA,≤ 0.2
22,MSSI,≤ 0.2
23,AEVW,≤ 0.2
24,VSQC,≤ 0.2

row,Variant,one-hybrid fitness for binding NBS DNA
1,EASF,≤ 0.2
2,PPQG,≤ 0.2
3,SMIK,≤ 0.2
4,TKAY,≤ 0.2
5,QNFF,≤ 0.2
6,HTAK,≤ 0.2
7,RFMP,≤ 0.2
8,LEES,≤ 0.2
9,LYKS,≤ 0.2
10,QFTV,≤ 0.2
11,NRKW,≤ 0.2
12,ANTR,≤ 0.2
13,QNAC,≤ 0.2
14,VKWR,≤ 0.2
15,DCQS,≤ 0.2
16,YKDS,0.297
17,SPQF,≤ 0.2
18,CCAG,≤ 0.2
19,CNMK,≤ 0.2
20,SHHS,≤ 0.2
21,SEAP,≤ 0.2
22,QTSM,0.232
23,QHLI,≤ 0.2
24,SKRY,≤ 0.2

row,Variant,one-hybrid fitness for binding NBS DNA
1,NMYV,≤ 0.2
2,PQVR,≤ 0.2
3,RPYC,≤ 0.2
4,SKVR,≤ 0.2
5,PPQL,≤ 0.2
6,RVQG,≤ 0.2
7,FWTT,≤ 0.2
8,HCNT,≤ 0.2
9,LRIL,≤ 0.2
10,TQSY,≤ 0.2
11,CWVA,≤ 0.2
12,FLHT,≤ 0.2
13,LPTQ,≤ 0.2
14,MEFT,≤ 0.2
15,QVFC,≤ 0.2
16,VIAC,≤ 0.2
17,MLWT,≤ 0.2
18,LAQF,≤ 0.2
19,RQSE,≤ 0.2
20,VGVI,≤ 0.2
21,KMWS,≤ 0.2
22,LVAP,≤ 0.2
23,TWDG,≤ 0.2
24,PSHG,≤ 0.2

row,Variant,one-hybrid fitness for binding NBS DNA
1,QCIM,≤ 0.2
2,EEGV,≤ 0.2
3,VYKM,≤ 0.2
4,QVVA,≤ 0.2
5,SMGR,≤ 0.2
6,NGGC,≤ 0.2
7,YGWT,≤ 0.2
8,FCSG,≤ 0.2
9,VLLH,≤ 0.2
10,SSWW,≤ 0.2
11,NSRI,≤ 0.2
12,CNSM,≤ 0.2
13,MPVF,≤ 0.2
14,FMWV,≤ 0.2
15,DIHL,≤ 0.2
16,QQQE,≤ 0.2
17,VKLF,≤ 0.2
18,INEV,≤ 0.2
19,CAKW,≤ 0.2
20,TLSG,≤ 0.2
21,CVSW,≤ 0.2
22,AWWW,≤ 0.2
23,DPLL,≤ 0.2
24,VVDG,≤ 0.2

row,Variant,one-hybrid fitness for binding NBS DNA
1,RSQS,0.433
2,DSSP,≤ 0.2
3,RFWL,≤ 0.2
4,QDGR,≤ 0.2
5,VYSH,≤ 0.2
6,HTFT,≤ 0.2
7,SPMW,≤ 0.2
8,TVAF,≤ 0.2
9,YCQA,≤ 0.2
10,PSGD,≤ 0.2
11,RWRW,≤ 0.2
12,KMAT,≤ 0.2
13,PFAC,≤ 0.2
14,NSGK,≤ 0.2
15,GTFD,≤ 0.2
16,WEAC,≤ 0.2
17,LVVM,≤ 0.2
18,HLIR,≤ 0.2
19,LLTT,≤ 0.2
20,AGHC,≤ 0.2
21,RLVV,≤ 0.2
22,PYFT,≤ 0.2
23,SCLN,≤ 0.2
24,FFQG,≤ 0.2

row,Variant,one-hybrid fitness for binding NBS DNA
1,NHNS,≤ 0.2
2,DAMT,≤ 0.2
3,VVHE,≤ 0.2
4,RKCQ,≤ 0.2
5,LSQV,≤ 0.2
6,AIVC,≤ 0.2
7,APLW,≤ 0.2
8,FEYS,≤ 0.2
9,QPAY,≤ 0.2
10,QKMC,≤ 0.2
11,VFYR,≤ 0.2
12,RVRM,≤ 0.2
13,AYAT,≤ 0.2
14,PFGW,≤ 0.2
15,DMQT,≤ 0.2
16,MIAS,≤ 0.2
17,TAAN,≤ 0.2
18,FRFR,≤ 0.2
19,SCCV,≤ 0.2
20,MQKR,≤ 0.2
21,YMQS,≤ 0.2
22,HPLW,≤ 0.2
23,INST,≤ 0.2
24,QAKG,0.313

row,Variant,one-hybrid fitness for binding NBS DNA
1,DLPH,≤ 0.2
2,FNAI,≤ 0.2
3,ICPR,≤ 0.2
4,KEMT,≤ 0.2
5,QNID,≤ 0.2
6,DVTY,≤ 0.2
7,ASQH,≤ 0.2
8,KVEI,≤ 0.2
9,RVFF,≤ 0.2
10,QCQL,≤ 0.2
11,CKPT,≤ 0.2
12,RIID,≤ 0.2
13,PWQR,≤ 0.2
14,MVRT,≤ 0.2
15,WMIG,≤ 0.2
16,GSFP,≤ 0.2
17,LVVG,≤ 0.2
18,GHVL,≤ 0.2
19,HMLT,≤ 0.2
20,PIKM,≤ 0.2
21,MHRV,≤ 0.2
22,LIAN,≤ 0.2
23,RGWL,≤ 0.2
24,LRNK,≤ 0.2

row,Variant,one-hybrid fitness for binding NBS DNA
1,LRDR,≤ 0.2
2,RGTN,≤ 0.2
3,GSHY,≤ 0.2
4,SQYM,≤ 0.2
5,RFVS,≤ 0.2
6,IAAF,≤ 0.2
7,RMRI,≤ 0.2
8,AESY,≤ 0.2
9,WCMR,≤ 0.2
10,CSTC,≤ 0.2
11,SFVC,≤ 0.2
12,WDSC,≤ 0.2
13,AMDT,≤ 0.2
14,QSYG,≤ 0.2
15,SYII,≤ 0.2
16,TAVD,≤ 0.2
17,WQRR,0.21
18,NARL,≤ 0.2
